Measurements reported in publication PMC12136788.
The other results are listed elsewhere or left out.

B1: 118583070_118583859_1604_CDS_ENSG00000088205_ENST00000263239|human|control|control (ssRNA)
RNA: GGGAGUUCUACAGUCCGACGAUCACGAUGAAUAUAUUCCUUAGGGUCAUCCGGAGGGUCAUACUGAACAAUCCAGUCGACUUCAGGAAUGUCUAGUCCUCUCGCUGCCACAUCCGUACACAAUAGUGUUCCCGAAUCUGCAUUCAACAGAGGAUUGAGCAUCA
B2: 126976123_126976385_234_ncRNA_ENSMUSG00000040249_ENSMUST00000135188|mouse|control|control (ssRNA)
RNA: GGGAGUUCUACAGUCCGACGAUCACUGGGUUGGUGAAGUUGGUAGGCUUGUCAGGGUCAAGGGCAAAAUCAGCAUCCAGUAGGCCCCCGACAUCAUCGGGCUCUCCACCUUCAUACAUCUUGUAGGUAGGGUUUCCAAUUUCCCAACAGAGGAUUGAGCAUCA
B3: chr4:115894766:115894767:+_ENSMUSG00000028698_ENSMUST00000030464|mus_hu|mus_mus_mus_hu_True|8_108 (ssRNA)
RNA: GGGAGUUCUACAGUCCGACGAUCUUCACACGGAAAUUGUACUUCGGGUUUUCCAACGGCCAGUACCAGUCCGGCCAAACUACCCGAACAGGGUCCUCCCCCUCUCUCCUACAGAACACAACAAAAUAACAAAAUACUUUCAAGCAACAGAGGAUUGAGCAUCA
B4: chr11:77336104:77336105:-_ENSG00000074201_ENST00000525064|hu_mus|hu_hu_hu_mus_False|58_78 (ssRNA)
RNA: GGGAGUUCUACAGUCCGACGAUCCUCACACAUUGCUGUGAACAUCGCCUCCAAUGCUGAUUUAUCACUGGGCACAAAUCUAAAUUCAGAAAUGGGUUCAACAUCAUCAUUGUCUUCCUCAUCUUCAUCAGAGAGAGGUUCUUUCAACAGAGGAUUGAGCAUCA
B5: chr17:73195629:73195630:+_ENSMUSG00000039770_ENSMUST00000045174|mus_hu|motif|central (ssRNA)
RNA: GGGAGUUCUACAGUCCGACGAUCACGGGUACCACCGAUAUGAUCAAGGAAAAUUCUGCCCAUUUUUAUGGCUGAAGUUCGGAAAACCCUGAGCGGCGGUGAGAUCCGCGGCUGCCAGCGGCUUGUCGCUCUUCAGCUGGUAUGCAACAGAGGAUUGAGCAUCA
B6: chr16:94664741:94664742:+_ENSMUSG00000040785_ENSMUST00000117648|mus_hu|mus_mus_mus_hu_False|58_58 (ssRNA)
RNA: GGGAGUUCUACAGUCCGACGAUCUGGUACUGAUCUUGGUAGCUGAUAUUCAGGAGAAAGGCUGGCCAAGGGUGUAUAAAUGCUAGUGUACUGGGGCAAACCUGGUAACACGUUUAUGUAUGCUGGCGGUGUCUGGGUGAUAUCCAACAGAGGAUUGAGCAUCA
B7: chr10:111893621:111893622:+_ENSG00000148700_ENST00000277900|hu_mus|FALSE|FALSE (ssRNA)
RNA: GGGAGUUCUACAGUCCGACGAUCACCAGGCAGCAGCUGCUAAGGAGCAACAGUAACAACGCUCUGCCAGGGACGGCAGAGUCGGCCAAGCCAGCCACUGCUGAAAAGCUCGGCCGUUUUCGGACAUAUAAAAAGAGAUGAAUUCAACAGAGGAUUGAGCAUCA
B8: 17587103_17598582_181_CDS_ENSMUSG00000015733_ENSMUST00000015877|mouse|control|control (ssRNA)
RNA: GGGAGUUCUACAGUCCGACGAUCAUUAAAAACCUCAUUAAAUUCUCCAGGAGGGGCGUGAAUGAUGAAUUUUGCUGCUAUACGAACCUUCUCCUCAUCGGACAACUGCUCCUCCAGAUCCGCCAUCUUCCUUCUGGCGACAGACAACAGAGGAUUGAGCAUCA
B9: chr9:2804355:2804356:-_ENSG00000080608_ENST00000397885|hu_hu|motif|central (ssRNA)
RNA: GGGAGUUCUACAGUCCGACGAUCUUCCAUCUUGCUCUUAACUCUUUCCACCUAUGUGCUCAGUUUUUCAAGUAGAAUUUCGGUUCCUUUGCUGGUGCUUUUGGUUUUUUCCAAUGUAGGAAUCAAGCUUUUCAGUGCAGCUUUCAACAGAGGAUUGAGCAUCA
B10: chr17:41352247:41352248:+_ENSG00000188554_ENST00000341165|hu_hu|FALSE|FALSE (ssRNA)
RNA: GGGAGUUCUACAGUCCGACGAUCCUCAUCCUCCUCCUCCUCAUCCUCCUCAUCCUCCUCCUCCUCCAUGACAGCUUCUUCCUCAGCGAUAUGGAUAAUCUCCUCCUUCUCAUUUCCAAGUGGUCCUUCAGGCAAGGCAAAUGUCAACAGAGGAUUGAGCAUCA
B11: chr2:91446484:91446485:+_ENSMUSG00000040549_ENSMUST00000099716|mus_hu|FALSE|FALSE (ssRNA)
RNA: GGGAGUUCUACAGUCCGACGAUCCAAUUUCUCAUCUGCCAUGUGUGUGUUGUAGAUGAGUCUUAGCUGCAUAAAAGUGGCUAUCAGAAACUGAUCAAUAUGGCCGGACAUGGCUUCAGCUUUGUCUUCCUGUCUCAGGACCUCCAACAGAGGAUUGAGCAUCA
B12: chr2:47388980:47388981:-_ENSG00000143933_ENST00000272298|hu_mus|motif|central (ssRNA)
RNA: GGGAGUUCUACAGUCCGACGAUCUUCAUCUGUUAACUUCUCGCCAAGGUUUGUCAUCACAUGGCGAAGCUCUGCUGCACGGAUAUAGCCAUUGCCAUCCUUAUCAAACACACGGAAUGCUUCUCUAAUCUCUUCUUCACUGUCCAACAGAGGAUUGAGCAUCA
B13: 112911146_112911266_4521_CDS_ENSMUSG00000036862_ENSMUST00000078482|mouse|control|control (ssRNA)
RNA: GGGAGUUCUACAGUCCGACGAUCGUGCUCGUUCUCGUCCUGCACACGCACCUGCACUCUCAACAGCCGCGCGCCUGCGCCUCCCGGCCCCUCGGCGCGCACGGUGAGCGCGCGCCAGGCUGGCCCAGCCUCGAAGUCCAAGGGCAACAGAGGAUUGAGCAUCA
B14: 142051898_142066100_4030_3pUTR_ENSG00000114127_ENST00000264951|human|control|control (ssRNA)
RNA: GGGAGUUCUACAGUCCGACGAUCAGAUGCUAAAAAGUUCUCAAUUCCAGAGUUAGGCUGCUUAUUGGACAUUUUUUGGGACCAACACUCAGCUUUAGGACUCUUACACUCUUCUUUAAAUUUUCUGUGAGGGUCAUGUUUUCUCAACAGAGGAUUGAGCAUCA

biological target: T1, UNK ZnF1-3 (human, UniProt Q9C0B0 31-174); assay: nsRBNS (natural sequence RNA bind-n-seq); RBNS binding buffer (assumed for nsRBNS): 25 mM Tris pH 7.5, 150 mM KCl, 3 mM MgCl2, 0.01% Triton X-100, 500 ug/ml BSA, 20 U/ml SUPERase-In, 4 C; UNK is unkempt and MSI1 is Musashi-1; names of the RNAs are library labels; protein concentration not given here; high values mean tight binding
T1 sequence: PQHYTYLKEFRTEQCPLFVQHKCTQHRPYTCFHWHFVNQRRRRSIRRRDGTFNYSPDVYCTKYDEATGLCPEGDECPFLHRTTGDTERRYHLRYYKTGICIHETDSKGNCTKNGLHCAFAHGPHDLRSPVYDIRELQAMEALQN

Binder | binding signal [enrichment R]
B1 | 0.525
B2 | 0.495
B3 | 1.05
B4 | 0.887
B5 | 0.75
B6 | 1.04
B7 | 1.13
B8 | 0.78
B9 | 0.32
B10 | 0.793
B11 | 0.726
B12 | 0.609
B13 | 0.76
B14 | 0.671
